Out of some 310,000 compounds screened, about 2,200 (0.71%) showed an effect of 50% or more. The effect is printed as a negative number. This is one part of the list.
Target: human ether-à-go-go-related gene (hERG) potassium channel (human, UniProt Q12809)
Assay: primary screen, population patch clamp on CHO cells stably expressing hERG

human ether-à-go-go-related gene (hERG) potassium channel, sequence (Q12809 whole entry, looked up): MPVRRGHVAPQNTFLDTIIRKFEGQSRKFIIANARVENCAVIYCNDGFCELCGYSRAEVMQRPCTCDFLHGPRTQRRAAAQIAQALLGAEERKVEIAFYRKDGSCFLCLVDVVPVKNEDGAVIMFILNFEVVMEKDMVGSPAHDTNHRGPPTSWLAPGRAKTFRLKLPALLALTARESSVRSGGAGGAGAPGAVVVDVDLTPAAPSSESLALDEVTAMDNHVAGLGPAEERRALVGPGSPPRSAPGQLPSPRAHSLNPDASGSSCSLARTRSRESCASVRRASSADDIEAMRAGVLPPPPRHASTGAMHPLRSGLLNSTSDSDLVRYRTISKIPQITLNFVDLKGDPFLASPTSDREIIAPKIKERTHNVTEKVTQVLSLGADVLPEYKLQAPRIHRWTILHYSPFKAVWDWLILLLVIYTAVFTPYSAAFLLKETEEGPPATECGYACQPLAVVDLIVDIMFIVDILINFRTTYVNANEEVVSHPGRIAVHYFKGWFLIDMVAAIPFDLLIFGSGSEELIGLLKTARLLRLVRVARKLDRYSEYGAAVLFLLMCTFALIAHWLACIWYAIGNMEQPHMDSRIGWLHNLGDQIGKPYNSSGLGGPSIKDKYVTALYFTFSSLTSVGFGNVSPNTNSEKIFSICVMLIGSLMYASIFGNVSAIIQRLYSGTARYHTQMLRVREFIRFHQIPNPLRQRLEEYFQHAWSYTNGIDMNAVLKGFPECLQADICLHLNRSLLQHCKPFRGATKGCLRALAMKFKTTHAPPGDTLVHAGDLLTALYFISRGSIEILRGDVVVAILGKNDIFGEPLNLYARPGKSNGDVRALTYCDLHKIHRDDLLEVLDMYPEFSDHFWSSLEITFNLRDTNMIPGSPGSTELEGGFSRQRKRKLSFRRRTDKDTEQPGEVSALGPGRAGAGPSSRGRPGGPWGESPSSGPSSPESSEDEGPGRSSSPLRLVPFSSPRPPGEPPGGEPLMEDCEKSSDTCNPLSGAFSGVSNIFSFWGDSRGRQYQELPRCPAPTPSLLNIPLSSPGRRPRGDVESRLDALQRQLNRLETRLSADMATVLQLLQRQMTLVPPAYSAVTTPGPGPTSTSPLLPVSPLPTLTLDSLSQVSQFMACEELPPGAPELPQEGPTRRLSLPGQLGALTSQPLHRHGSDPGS

Compound	hERG current change (%, negative = inhibition) at 1uM
COc1cc(-c2c(C#N)c(N)nc3c2c(C)nn3-c2ccc(C)c(C)c2)cc(OC)c1OC	21.1%
COc1cc(OC)cc(C(=O)/C=C2\Sc3ccccc3N2C)c1	5.65%
COc1ccc(/C(N)=N/OC(=O)/C=C/c2ccccc2)cc1	-0.201%
COc1ccc(OC)c(C(=O)CC2OC(=O)c3ccccc32)c1 (stereo not shown)	5.4%
Cc1c(C(=O)NCc2cccs2)oc2ccc(S(=O)(=O)N3CCOCC3)cc12	9.05%
O=C(O)Cc1ccc(C(=O)c2ccc(Cl)cc2Cl)s1	6.58%
CCOC(=O)/C(C#N)=C1/SC(C)C(=O)N1c1ccc(Br)cc1 (stereo not shown)	-4.6%
Fc1ccc(C2NC(=S)NC3=C2N2CCC3CC2)cc1 (stereo not shown)	8%
COc1ccc(Nc2ccnc(Nc3ccc(OC)cc3)n2)cc1	3.34%
C/C(=N\OCC(=O)Nc1cc(C)cc(C)c1)c1ccc2c(c1)OCCO2	2.87%
COc1ccc(-c2nc(N)c(C#N)c(-c3cccnc3)c2C)cc1	7.35%
COc1ccc(C(CNC(=O)c2ccc(S(=O)(=O)Nc3ccc(F)cc3)cc2)N(C)C)cc1 (stereo not shown)	7.45%
Cc1c(C)n(C)c2ccc([N+](=O)[O-])cc12	6.94%
CC1CN(Cc2c(O)ccc3c2oc(=O)c2ccccc23)CC(C)O1 (stereo not shown)	10.4%
CCOC(=O)c1ccc(Oc2nc(NC)nc(SC)n2)cc1	8.43%
COCCn1c(COc2ccc(C)cc2)nc2ccccc21	11.1%
NC(=O)CCn1c(C(=O)c2cc(Cl)c(N)c(Cl)c2)c2ccccc2[n+]1[O-]	14.9%
CCOC(=O)c1cc(NC(=O)N2CCCCC2)c(C)nc1C	19.2%
Cc1cc(N2CCCC2)nc(N2C3CCC2CC(O)(c2ccc(F)cc2)C3)n1 (stereo not shown)	-2.31%
COc1cccc(NC(=O)N2CCN(S(C)(=O)=O)CC2)c1	10.4%

Compound	hERG current change (%, negative = inhibition) at 1uM
CC(=O)c1ccc(NC(=O)CCc2nnc3ccc(NCc4ccco4)nn23)cc1	6.27%
CCOC(=O)c1csc(NC(=O)CN2CCN(C)CC2)n1	13.4%
N#Cc1c(-c2ccccc2)nc(-c2ccccc2)[nH]c1=O	10.2%
CCc1cccc(C)c1NC(=O)c1cccnc1	15.7%
CCOC(=O)Cn1c(-c2ccccn2)nc2ccccc21	10.8%
Cc1ccnc(SCC(=O)c2ccc(Br)cc2)c1C#N	7.03%
S=C(NCCc1ccccc1)Nc1ccc(Nc2ccccc2)cc1	14.5%
CCOC(=O)COc1ccc(N)cc1CC(NC(C)=O)(C(=O)OCC)C(=O)OCC	-69.6%
Fc1cc(F)cc(NC(=S)NN2CCOCC2)c1	8.64%
CCN(CC)CCCN(Cc1cc2cc3c(cc2[nH]c1=O)OCO3)C(=S)NCCCN(C)C	8.05%
CCCn1c(N)c(N(CCOC)C(=O)c2cc(Cl)nc3ccccc23)c(=O)[nH]c1=O	22.2%
O=c1[nH]c(COc2ccccc2)nc2ccccc12	13.4%
CCC(CC)C(=O)c1c[nH]c(C(=O)O)c1	20.4%
CC(C)=CCOc1ccc2ccc(=O)oc2c1	-6.5%
COc1ccc(C(CNC(=O)c2oc3cc(C)c(Cl)cc3c2C)N2CCCCC2)cc1 (stereo not shown)	18.4%
COc1ccccc1/C=C/C(=O)OCCCN(C)C.Cl	18.6%
CC(NS(=O)(=O)c1ccc(Cl)cc1)C(=O)Nc1ccc2c(c1)OCCO2 (stereo not shown)	-5.22%
CN(C)S(=O)(=O)c1cc(NC(=O)C[N+]23CCN(CC2)CC3)ccc1Cl.[Cl-]	9.91%
CSCCC(NS(=O)(=O)c1ccccc1F)C(=O)NCc1cccnc1 (stereo not shown)	11.3%
CCOc1ccc(Cl)cc1S(=O)(=O)N1CCN(c2ccc(F)cc2)CC1	-4.38%

Compound	hERG current change (%, negative = inhibition) at 1uM
COc1cc(C2C(C#N)=C(N)Oc3cc(N(C)C)ccc32)cc2c1OCO2 (stereo not shown)	8.6%
O=C(NC1CCCCC1)C(c1cccs1)N(C(=O)c1ccccn1)c1ccccc1 (stereo not shown)	2.42%
CSCCC(NC(=O)c1ccoc1C)C(=O)O (stereo not shown)	7.87%
CCCCC(=O)Nc1c2c(nn1-c1ccc([N+](=O)[O-])cc1)CS(=O)(=O)C2	-5.33%
FC(F)(F)c1ccc(Oc2ccc3c(C(F)(F)F)cc(C(F)(F)F)nc3n2)cc1	19.7%
COc1ccc(CCNC(=O)C2CC=CCC2C(=O)O)cc1 (stereo not shown)	7.67%
CN(Cc1cn(-c2ccccc2)nc1-c1ccc(F)cc1)C(=O)CCC(=O)O	13.5%
CCCCN(C)C(=O)C1CCN(c2ccc(S(=O)(=O)N3CCOCC3)cc2[N+](=O)[O-])CC1	-11.8%
COc1ccccc1Nc1nc(N)nc(CN2CC(C)CC(C)C2)n1 (stereo not shown)	-70.8%
COc1ccccc1NC(=O)Nc1ccccc1SC	2.65%
CC(Sc1nccn1C)C(=O)Nc1ccc(Cl)cn1 (stereo not shown)	4.07%
CCOP(=O)(OCC)c1nc(-c2ccc(Cl)cc2Cl)oc1N1CCOCC1	1.4%
Cc1ccc(S(=O)(=O)N2CCN(C(=O)c3sccc3C)CC2)cc1	7.79%
CCCNC(=O)C1(CC2CC(c3ccccc3)=NO2)CCN(C(=O)Cc2ccc(F)cc2)CC1 (stereo not shown)	-9.55%
COC(=O)C(Cc1ccc(O)cc1)NC(=O)C(C)Oc1ccccc1 (stereo not shown)	19.1%
Cc1ccc2c(c1)c1nnc(SCC(=O)NC3CC3)nc1n2C	12.1%
CCNc1nc(SC)nc(N(C#N)CC(=O)OC)n1	11.7%
N#Cc1nc(-c2ccco2)oc1NCCc1ccccc1	10.2%

Reference: PMC4336329 (PLoS ONE, 2015)
